Experimental findings from patent publication EP4702992A1, “ANTIBODY-DRUG CONJUGATE” (priority 2023, dated 2024) are described below.

The nature of data set [1]: DAR determination by reversed-phase chromatography. Particulars: average drug loading per antibody. As for the experimental part:
The antibody sample was diluted to about 10 mg/mL with a suitable buffer (consistent with the sample buffer), and an appropriate amount of a reducing agent TCEP was added, with the number of equivalents adjusted according to a target DAR (8-10 equivalents for a target DAR of 8). The pH was then adjusted to 7-7.4 with a Tris buffer, and the antibody was reduced at room temperature for 1-1.5 h. The reduced intermediate state of the antibody could be monitored by CE-SDS. […] The conjugation reaction was performed at room temperature for about 30 min. After the conjugation was completed, the reaction liquid was first filtered, and then subjected to buffer exchange by ultrafiltration using a centrifugal concentration tube to remove excess linker-drug and other small-molecule impurities. After the purification was completed, the resulting sample was subjected to DAR determination by reversed-phase chromatography.
The concentration of the antibody trastuzumab was adjusted to 10 g/L using a phosphate buffer solution (pH 7.0), and the antibody solution after buffer exchange was placed into a centrifuge tube, followed by the addition of 8.0 equivalents of 5 mM TCEP (Adamas-beta, Ltd.). […] The average drug loading per antibody was determined by reversed-phase chromatography.
The concentration of the antibody farletuzumab or farletuzumab FcS was adjusted to 10 g/L using a phosphate buffer solution (pH 7.0), and the antibody solution after buffer exchange was placed into a centrifuge tube, followed by the addition of 7.0 equivalents of 5 mM TCEP (Adamas-beta, Ltd.). […] The average drug loading per antibody was determined by reversed-phase chromatography.
The concentration of the antibody 33B was adjusted to 10 g/L using a phosphate buffer solution (pH 7.0), and the antibody solution after buffer exchange was placed into a centrifuge tube, followed by the addition of 10.0 equivalents of 5 mM TCEP (Adamas-beta, Ltd.). […] The average drug loading per antibody was determined by reversed-phase chromatography. […]

The test system of another data set is A431. Put plainly: In vitro cytotoxicity of DLL3-ADC (CTL Plus). The data set is classed as cell-based. Particulars: A431 (DLL3-negative), 6 days. As for the experimental part: (§1) The DLL3-positive cell strains NCI-H82, SHP77, NCI-H526, and NCI-H209 and the DLL3-negative cell strains A431 and NCI-H69 were used to evaluate the in vitro cytotoxicity mediated by D-ADC55-1-8. Cells were harvested, cultured with serially diluted D-ADC55-1-8, and then incubated at 37 °C. The viability was determined using CTL Plus after 6 days. Readings and analyses were performed on EnVision 2105 (PerkinElmer) to determine IC50 (half-maximal inhibitory concentration) values.
(§2) Experimental procedures: The test cells were adjusted to a cell density of 6.7 × 10^4 cells/mL and seeded into a 96-well plate at 75 µL/well. The plate was incubated overnight in an incubator at 37 °C with 5% CO2. 5-fold gradient dilutions of D-ADC55-1-8 (0-100 nM) with a total of 9 concentration gradients were added to the cells at 75 µL/well. The blank control was the medium for the corresponding cells. Two replicate wells were set for each concentration. After the cells were cultured in an incubator at 37 °C with 5% CO2 for 6 days, 50 µL of CTL Plus (manufacturer: Beyotime, Cat. No.: C0068XL) luminescent reagent was added, and the cells were incubated in the dark at room temperature for 10 min. The chemiluminescence detection was performed on an EnVision 2105 microplate reader. […] The data were processed and analyzed using GraphPad Prism, and IC50 was calculated. […] Table 22: In vitro cytotoxicity of DLL3-ADC

A further data set deals with NCI-H209. Put plainly: In vitro cytotoxicity of DLL3-ADC (CTL Plus). It is filed as cell-based. The conditions noted are these: NCI-H209, 6 days. On the procedure:
as §1, §2

For another data set, the system named is NCI-H526. Put plainly: In vitro cytotoxicity of DLL3-ADC (CTL Plus). The data set is classed as cell-based. The conditions noted are these: NCI-H526, 6 days. As for the experimental part:
as §1, §2

The subject of another data set is NCI-H69. Put plainly: In vitro cytotoxicity of DLL3-ADC (CTL Plus). The data set is classed as cell-based. The conditions noted are these: NCI-H69, 6 days. On the procedure: as §1, §2
The test system of the next data set is NCI-H82. Put plainly: In vitro cytotoxicity of DLL3-ADC (CTL Plus). It is filed as cell-based. On the procedure:
as §1, §2

For the next data set, the system named is SHP77. Put plainly: In vitro cytotoxicity of DLL3-ADC (CTL Plus). The data set is classed as cell-based. The conditions noted are these: SHP77, 6 days. As for the experimental part: as §1, §2
In another data set the test system is SHP77 xenograft tumor. Put plainly: Pharmacodynamic evaluation in SHP77 xenograft tumor mouse model. The data set is classed as in vivo, nu/nu nude mice. The conditions noted are these: SHP77, 1 mg/kg, single intravenous injection. The text has this: Cells were taken from the DLL3-positive cell strain SHP77 and inoculated into the right forelimb axilla of nu/nu nude mice at 10^7 cells/mouse (7 mice per group). When the mean tumor volumes of the mice reached about 100 mm^3 (groups 1-6), the mice were randomly grouped and subjected to administration by a single intravenous injection. The day of grouping was defined as Day 0, and the administration was started on Day 0. After tumor grafting, the experimental animals were routinely monitored for tumor growth and the effect of treatment on the normal behavior, specifically the activity, food and water intake, body weight gain or loss (the body weight was measured twice a week), and abnormalities in eyes, fur, and other aspects. Calculation formula for tumor volume: Tumor volume (mm^3) = 1/2 × (a × b^2) (where a represents the long diameter, and b represents the short diameter). Table 23: Pharmacodynamic evaluation of test drugs in human small cell lung cancer xenograft SHP-77 mouse model

Where only a bound is given, the exact number is not on record here.

B1: D-ADC55-1-8 (conjugate)
heavy: QVQLVQSGAEVKKPGASVKVSCKASGYTFTDYYMKWVRQAPGQRLEWMGAFNLNNGDTFYNQKFKGRVTITRDTSASTAYMELSSLRSEDTAVYYCARDVYGYGDYWGQGTSVTVSSASTKGPSVFPLAPSSKSTSGGTAALGCLVKDYFPEPVTVSWNSGALTSGVHTFPAVLQSSGLYSLSSVVTVPSSSLGTQTYICNVNHKPSNTKVDKKV[human IgG1 Fc with L234A L235A P329A P331S (EU numbers) not given here]
light: DIVMTQSPDSLAVSLGERATINCRASKSVSTSGYSYMHWYQQKPGQPPKLLIYLASNLDSGVPDRFSGSGSGTDFTLTISSLQAEDVAVYYCQHSRELPYTFGGGTKLEIKRTVAAPSVFIFPPSDEQLKSGTASVVCLLNNFYPREAKVQWKVDNALQSGNSQESVTEQDSKDSTYSLSSTLTLSKADYEKHKVYACEVTHQGLSSPVTKSFNRGEC
For orientation: IC50 means the point on the concentration scale where inhibition reaches its midpoint. With B1, the DAR in data set [1] is reported as 8.0. For the same molecule, the IC50 in the data set on A431 is more than 100 nM; with NCI-H209 it was 1.07 nM; in the data set with NCI-H526, 16.7 nM; in the data set on NCI-H69, more than 100 nM; with NCI-H82 (NCI-H82, 6 days, CTL Plus), 4.4 nM; in the data set with SHP77, 36.6 nM. Further, the in vitro cytotoxicity entry in the data set on NCI-H82 (DLL3-positive cell strains (NCI-H82, SHP77, NCI-H526, NCI-H209), 6 days, in words) is reported as “good in vitro cytotoxicity”. Also, the “Mean tumor volume (Day 0)” value in the data set with SHP77 xenograft tumor (Day 0 (day of grouping), mean ± standard error) came to 104.1±14.5 mm^3. In addition, in the data set with SHP77 xenograft tumor (Day 22), the “TGI(%)” value was found to be 98.1%. The “Mean tumor volume (Day 22)” value in the data set on SHP77 xenograft tumor (Day 22, mean ± standard error) amounted to 158.3±82.4 mm^3.
